Measured values from PubChem BioAssay AID1159614 (National Center for Advancing Translational Sciences (NCATS), 2016).
Hit rate of the full screen: of about 45,000 compounds, about 65 (0.1%) were called active. Calls follow the shape of the dose curve; as a rule, active = well fitted activation curve with a large enough effect; inconclusive = small, poorly fitted or top-dose-only effect; inactive = no such curve, though single readings can be large or run the other way. The list shows a part of the results.

biological target: Galactocerebrosidase (Homo sapiens) (UniProt P54803); experiment: A Novel Cell-Based Assay to Identify Small Molecules for B -Galactocerebrosidase; conditions: 145M-Twi-hGALC-G270D cells (Twitcher mouse brain line with human GALC G270D), HMU-beta-Gal fluorescence, 48 h; series mostly up to 57.5 µM; activation: at the top concentration; also: 0% is about no effect; nearly all actives have a fitted effect of over 65% in size
UniProt P54803, sequence (P54803 whole entry, looked up): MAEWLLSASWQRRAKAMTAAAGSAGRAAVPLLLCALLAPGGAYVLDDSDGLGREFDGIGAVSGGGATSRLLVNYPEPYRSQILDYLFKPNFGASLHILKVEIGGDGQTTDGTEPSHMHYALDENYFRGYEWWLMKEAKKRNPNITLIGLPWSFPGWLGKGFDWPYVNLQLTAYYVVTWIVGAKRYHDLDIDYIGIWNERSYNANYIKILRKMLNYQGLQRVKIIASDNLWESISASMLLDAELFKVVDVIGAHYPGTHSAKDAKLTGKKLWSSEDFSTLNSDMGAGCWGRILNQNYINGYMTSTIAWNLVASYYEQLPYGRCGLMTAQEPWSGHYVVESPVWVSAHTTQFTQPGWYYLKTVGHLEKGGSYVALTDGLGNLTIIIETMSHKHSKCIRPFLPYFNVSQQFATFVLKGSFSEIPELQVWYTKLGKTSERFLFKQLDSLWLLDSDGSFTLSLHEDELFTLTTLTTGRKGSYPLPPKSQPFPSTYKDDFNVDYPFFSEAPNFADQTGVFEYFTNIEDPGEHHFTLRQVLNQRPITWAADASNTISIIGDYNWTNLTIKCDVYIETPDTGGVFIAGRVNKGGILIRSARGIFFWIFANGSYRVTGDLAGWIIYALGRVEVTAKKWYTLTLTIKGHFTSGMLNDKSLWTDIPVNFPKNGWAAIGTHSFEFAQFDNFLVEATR
Summary of the method: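 Fluorescence readout: HMU-β-gal cleavage by mutant GALC (0.1 mM final, citrate/phosphate pH 5.2 with 1 mg/mL taurocholate), stopped with carbonate/bicarbonate plus Triton X-100. Cells: murine Twitcher 145M-Twi expressing human G270D GALC; qHTS for activators.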

activation, inactive:
Cc1cc(C)c(NC(=O)Cn2c(=O)oc3cc(S(=O)(=O)N4CCCCCC4)ccc32)c(C)c1 -17.9%
COc1ccccc1CCNC(=O)c1cccn1-c1nnc(N2CCCC2)s1 -14.2%
Cc1ccccc1NC(=O)C(=O)NCC(c1ccc2c(c1)OCO2)N1CCN(c2ccccc2)CC1 (stereo unspecified) -25.7%
COc1ccc(CNC(=O)Cn2c(=O)oc3cc(S(=O)(=O)NCc4ccccc4)ccc32)cc1 -13.1%
CCOc1ccc(C2C(C(=O)Nc3ccccc3)=C(C)Nc3nc(-c4ccccc4Cl)nn32)cc1OC (stereo unspecified) -10.9%
CCCN(C(=O)c1cc(S(=O)(=O)N2CCc3ccccc32)cn1C)c1ccc(OCC)cc1 -23.7%
Cc1ccc(Cl)cc1N1CCN(c2ncnc3c2nc2n3CCCC2)CC1 -13.7%
FC(F)(F)c1cccc(N2CCN(c3ncnc4c3nc3n4CCCC3)CC2)c1 -28.1%
CCC(C)NC(=O)c1cc(Sc2cccc(Cl)c2)nc2ccccc12 (stereo unspecified) 0.115%
CCCn1c2ccccc2c2cnn(CC(=O)NCCCN3CCCCC3CC)c(=O)c21 (stereo unspecified) 7.34%
O=C(Cn1nc(C(F)(F)F)c2c1CCCC2)Nc1cccc(Cl)c1 -12.5%
CCOc1ccc(Nc2cc(C)nc3nncn23)cc1 -6.71%
COc1ccc(NC(=O)c2cc3c(-c4ccccc4F)nn(C)c3s2)c(OC)c1 -10.3%
Cc1ccccc1NC(=O)Cn1cc(S(=O)(=O)c2ccccc2)c(=O)c2ccccc21 -1.62%
CC(C)c1cnc2c(c1SCC(=O)NC(C)(C)C)c(=O)n(C)c(=O)n2C -6.4%
CCc1ccc(-c2nc(CS(=O)CC(=O)NCCc3ccc(C)cc3)c(C)o2)cc1 (stereo unspecified) -12%
CCOc1ccc(N(C)C(=O)c2oc(=O)c3ccccc3c2-c2ccccc2)cc1 -6.19%
CCOC(=O)c1noc2nc(C)n(CC(=O)Nc3cccc(OC)c3)c(=O)c12 -20.5%
Cc1ccc(CN(C(=O)c2ccc(OCC(C)C)cc2)c2ccccn2)o1 -17.7%
O=C(O)CC1c2ccccc2CCN1C(=O)Nc1cc(Cl)ccc1Cl (stereo unspecified) -20.9%
CCn1cc2c(n1)-c1c(oc(C(=O)Nc3ccc(Br)cc3F)c1C)CC2 -2.87%
Cc1ccc(N(CC(=O)N2CCN(c3cc(C)ccc3C)CC2)S(=O)(=O)c2c(C)nn(C)c2C)cc1 -5.7%
CCc1ccc(S(=O)(=O)c2nnn3c2nc(N2CCN(c4ccccc4)CC2)c2cc(Cl)ccc23)cc1 -2.87%
Cc1cccc2c1-c1sc(C(=O)Nc3ccc(F)cc3F)cc1CO2 -5.72%
COC(=O)COc1ccc(-c2nnc(Nc3ccc(O)cc3)c3ccccc23)cc1 17.8%
CCCCC1CCC(C(=O)N2CC(=O)Nc3ccc(Br)cc3C2c2ccc(F)cc2)CC1 (stereo unspecified) -8.97%
CN(C(=O)Cn1nc(Cc2cccnc2)c2ccccc2c1=O)c1cccc(C(F)(F)F)c1 -14.6%
O=c1c2sc3ccccc3c2n(Cc2cccc(F)c2)c(=O)n1CCc1ccccc1 -16.6%
CCN(CC)C(=O)Cn1c(=O)n(CCCCCC(=O)NCc2ccc3c(c2)OCO3)c(=O)c2sccc21 0.305%
Cc1ccc(CNC(=O)C(=O)Nc2c3c(nn2-c2ccc(F)cc2)CSC3)cc1 -12.5%
Cc1ccc(NC(=O)CN2C(=O)COc3ccc(S(=O)(=O)N4CCCCCC4)cc32)c(C)c1 7.34%
Cc1ccc(CNC(=O)c2ccc(N3CCCC3)c(NC(=O)Nc3ccc(C)cc3)c2)cc1 -9.42%
CCC(=O)OCc1cc(=O)n2nc(C3CC3)sc2n1 -12.9%
CCCc1cnc2c(c1SCC(=O)NCc1ccc(C)cc1)c(=O)n(C)c(=O)n2C -9.94%
CCCCCCC(=O)Nc1ccc2nc3c(=O)n(C)c(=O)n(C)c3nc2c1C -10.3%
O=C(c1ccc2c(c1)N(Cc1ccc(Cl)cc1)C(=O)c1ccccc1S2(=O)=O)N1CCCC1 -4.93%
CC(=O)Nc1cccc(-c2nc(-c3ccccc3)no2)c1 15.1%
CCOC(=O)c1ccc(N2C(=O)c3n[nH]c(-c4ccco4)c3C2c2ccc(C(=O)OC)cc2)cc1 (stereo unspecified) 9.44%
COC(=O)c1ccccc1NC(=O)[C@H]1O[C@@H]2OC(C)(C)O[C@@H]2[C@H]2OC(C)(C)O[C@H]21 -8.56%
Cc1cc(C)cc(OCC(=O)Nc2cccc3cccnc23)c1 -11.3%
CC(=O)OCC(=O)[C@@]1(O)CCC2C3CCC4=CC(=O)CC[C@]4(C)C3[C@@H](O)C[C@@]21C (stereo partly specified) -21.3%
CCOc1ccc(CNC(=O)c2oc3c(c2C)-c2nn(Cc4cccc(Cl)c4)cc2CC3)cc1 -17.5%
COc1ccc(C)c2sc(NC(=O)c3ccc(S(=O)(=O)N(C)C)cc3)nc12 -20.1%
COc1ccccc1CCNC(=O)Cc1c(C)c2cc(Cl)c(O)cc2oc1=O -22.8%
CC(C)c1ccc(S(=O)(=O)N2CCN(Cc3cccc(F)c3)CC2)cc1 -1.25%
CCCCOc1ccccc1C1CC(=O)Nc2ccc3ccccc3c21 (stereo unspecified) -15.9%
Cc1ccc(N(C)C(=O)c2sc3nc4n(c(=O)c3c2C)CCCC4)cc1C -14.6%
COc1ccc(NC(=O)CSc2ncc3c(n2)-c2ccccc2N(Cc2ccc(C)cc2)S3(=O)=O)cc1Cl 5.6%
CN(C)CC[C@@H](c1ccc(Cl)cc1)c1ccccn1 -4.08%
COCCCn1c(=O)c2sccc2n2c(CCCC(=O)NCc3cccc(OC)c3)nnc12 3.16%
CCOc1ccc(-c2cccc(NS(=O)(=O)c3ccc(C)s3)c2)nn1 -15.8%
CCCCN(CC)C(=O)CSc1nc2n[nH]c(C)c2c(=N)n1-c1ccc(CC)cc1 -13.4%
CCOC(=O)C1CCN(C(=O)c2cc3sc(C)cc3n2C)CC1 -9.5%
O=C(CCC1N=C2c3ccccc3N=C(SCC(=O)Nc3cccc(Cl)c3)N2C1=O)NCc1ccco1 (stereo unspecified) -15.6%
NC(=O)C1CCN(S(=O)(=O)c2cc3c(cc2Cl)NC(=O)CO3)CC1 -12.1%
CCOc1ccc(NS(=O)(=O)c2c(C)nc3sc(C)c(C)n3c2=O)cc1 -4.96%
CCOC(=O)C1CCN(C(=O)c2ccccc2NC(=O)c2nsc3ccccc23)CC1 8.74%
O=C(CSc1ncc(-c2ccccc2)[nH]1)Nc1ccccc1 -12.1%
CCN1C(=O)c2ccccc2S(=O)(=O)c2ccc(C(=O)NCc3ccccc3)cc21 -11%
Cc1nc2nc(NC(=O)c3ccc(C(C)(C)C)cc3)[nH]n2c(=O)c1C -9.15%
CCCCOc1ccc(C(=O)Nc2ccc3c(c2)CCCN3C(=O)c2cccs2)cc1 -21.4%
